Results as given in PubChem BioAssay AID1508642 (National Center for Advancing Translational Sciences (NCATS), 2021).
Screen size: about 43,000 compounds; about 200 (0.47%) were called active. Inconclusive results, whose numbers are uncertain, are shown with a selection of clear calls. The call rests on the fitted dose curve; in most records, active means well fitted cell-killing curve with a large enough effect; inconclusive means small, poorly fitted or top-dose-only effect, or effect the other way; inactive means flat fitted curve, though single readings scatter. Potencies of inconclusive entries are doubtful fits and often do not repeat.

Test: Cell viability qHTS assay in S16 Pmp22-F2sN cells; further: nearly all actives have a fitted effect of over 65% in size
Conditions: S16 Pmp22-F2sN Schwann cells viability, CellTiter-Glo, 24 h; series mostly up to 57.5 µM
In short: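 Used to flag compounds lowering reporter output through toxicity, this quantitative HTS measures ATP-based CellTiter-Glo luminescence in S16 Pmp22-F2sN Schwann cells after 24 h compound exposure at 37C.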
Potency means the concentration at half of the fitted maximal effect; tags describe the fitted curve by direction and shape.

SMILES | Potency
COc1ccccc1C(=O)OCc1cc(=O)n2nc(C(C)C)sc2n1 | inconclusive: 10 µM [cytotoxic, partial curve]
CC1CCCCN1CCCNC(=O)c1cc(Sc2ccc(Cl)cc2)nc2ccccc12 (configuration not stated) | inconclusive: 39.8 µM [cytotoxic, single point]
COc1ccccc1CNC(=O)c1oc2ccc3c(c2c1C)C(=O)CC(C)(C)O3 | inconclusive: 39.8 µM [cytotoxic, single point]
CC1=Nc2cc(C(=O)NCCc3ccc(Cl)cc3)ccc2Sc2c(C)ccc(C)c21 | inactive
CCOc1ccc(-n2nc3ccc(NC(=O)c4ccc(-c5cccc(Cl)c5)o4)cc3n2)cc1 | inconclusive: 39.8 µM [cytotoxic, single point]
CCCC1=Nc2cc(C(=O)N3CCC(C)CC3)ccc2Sc2ccc(C)cc21 | inactive
CN(C)c1ccc(NC(=O)CSC2=Nc3ccccc3C3=NC(CCC(=O)NCc4cccs4)C(=O)N23)cc1 (configuration not stated) | inconclusive: 39.8 µM [cytotoxic, single point]
CCN(CC)CCCNC(=O)c1ccc2c(Cl)c3c(nc2c1)CCCC3 | inconclusive: 35.5 µM [cytotoxic, single point]
CCOC(=O)c1cccc(NS(=O)(=O)c2cc3c(cc2C)NC(=O)CO3)c1 | inconclusive: 28.2 µM [cytotoxic, single point]
O=C(c1ccc(Nc2nc3ccccc3n3nnnc23)cc1)N1CCN(c2cccc(C(F)(F)F)c2)CC1 | inconclusive: 15.8 µM [cytotoxic, partial curve, poor fit]
Cc1ccc(C)c(NS(=O)(=O)c2cc3c4c(c2)C(C)C(=O)N4CCC3)c1 (configuration not stated) | inactive
Cc1ccc(OCC(=O)OCc2cc(=O)n3nc(C4CC4)sc3n2)cc1 | inconclusive: 39.8 µM [cytotoxic, single point]
Cc1ccc(NC(=O)C2CCN(c3nnc(C)c4c(C)n(-c5ccccc5)nc34)CC2)cc1Cl | inactive
Cc1c(Cl)cccc1-n1ncc(C(=O)N2CCOCC2)c1C1CCN(C(=O)OC(C)(C)C)CC1 | inactive
COc1ccc(C(=O)NC(c2ccc(Cl)cc2)c2cc(Cl)c3cccnc3c2O)cc1 (configuration not stated) | active: 3.98 µM
CCCCN(CC)C(=O)c1cc2c(=O)n3cccc(C)c3nc2s1 | inactive
CCOc1ccc(NC(=O)Cn2c(=O)c(CNc3ccc(CC)cc3)cc3cc4c(cc32)OCO4)cc1 | inconclusive: 2 µM [rising, full curve, poor fit]
Cc1oc2ncn(CC(C)C)c(=O)c2c1C(=O)NC(C)c1ccccc1 (configuration not stated) | inconclusive: 25.1 µM [cytotoxic, single point]
Cc1ccc(CNc2ncnc3onc(-c4ccc(F)cc4)c23)cc1 | inconclusive: 35.5 µM [cytotoxic, partial curve, poor fit]
COc1ccc(C(=O)Nc2ccc3c(c2)CCCN3C(=O)c2cccs2)c(OC)c1 | inconclusive: 31.6 µM [cytotoxic, partial curve, poor fit]
Cc1cccc(-n2ccnc2SCC(=O)Nc2cccc3ccccc23)c1C | inactive

SMILES | Potency
Cc1ccc(/C=C/c2onc(C)c2S(=O)(=O)N2CCC(C(=O)N3CCN(c4ccccc4F)CC3)CC2)cc1 | inactive
O=C(NCCc1ccccc1Cl)c1ccc2c(=O)n(-c3ccccc3)c(=O)[nH]c2c1 | inconclusive: 39.8 µM [cytotoxic, single point]
CCCN(CCC)CCNC(=O)c1ccc2c(c1)NC(=O)C(CS(=O)(=O)Cc1cccc(Br)c1)N2 (configuration not stated) | inactive
Cc1cccc(C(=O)Nc2c(C(=O)NCc3ccc(Cl)cc3)sc3nc(C)cc(C)c23)c1 | inconclusive: 39.8 µM [cytotoxic, single point]
COc1ccc(OC)c(CCNC(=O)c2cnn(-c3ccccc3Cl)c2C2CCN(C(=O)OC(C)(C)C)CC2)c1 | inconclusive: 39.8 µM [cytotoxic, partial curve, poor fit]
COc1ccc(NC(=O)c2c(C)oc3ccc(O)c(CN4CCCCCC4)c23)cc1Cl | inconclusive: 39.8 µM [cytotoxic, single point]
CCOC(=O)c1cc2c(=O)n3ccccc3nc2n(Cc2ccco2)c1=NC(=O)c1c(F)cccc1Cl | inconclusive: 12.6 µM [cytotoxic, partial curve, poor fit]
CCOC(=O)c1c(C)[nH]c(C)c1S(=O)(=O)N(C)CC(=O)Nc1ccc(C)c(N(C)C)c1 | inconclusive: 2 µM [cytotoxic, full curve]
COC(=O)c1c(C)oc2ccc(N(C(=O)c3ccncc3)S(=O)(=O)c3c(C)cc(C)cc3C)cc12 | inactive
O=C(NCc1ccccc1)c1nc(S(=O)(=O)Cc2ccccc2)ncc1Cl | active: 8.91 µM
CCN1CCN(c2c(S(=O)(=O)c3ccc(C)c(C)c3)cnc3ccc(F)cc23)CC1 | inconclusive: 17.8 µM [cytotoxic, partial curve, poor fit]
Cc1nn(CC(=O)Nc2ccccc2F)c(=O)c2c(C)n(-c3ccc(Cl)cc3)nc12 | inconclusive: 22.4 µM [cytotoxic, single point]
Cc1nnc(NCc2ccccc2)c2c1nnn2Cc1ccc(F)cc1 | inconclusive: 31.6 µM [cytotoxic, single point]
O=C(NCCc1ccccc1)c1ccc(CSc2nc3ccncc3n2Cc2ccc(F)cc2)cc1 | inconclusive: 31.6 µM [cytotoxic, single point]
CCCCn1cc(S(=O)(=O)c2cccc(C)c2)c(=O)c2cc(F)c(N3CCOCC3)cc21 | inconclusive: 25.1 µM [cytotoxic, partial curve, poor fit]
CCOc1ccc(S(=O)(=O)NCC(c2ccco2)S(=O)(=O)c2ccc(F)cc2)cc1 (configuration not stated) | inconclusive: 25.1 µM [cytotoxic, single point]
CCOC(=O)c1cc2c(=O)n3ccccc3nc2n(CC2CCCO2)c1=NC(=O)c1ccc(C)cc1 (configuration not stated) | inconclusive: 28.2 µM [cytotoxic, partial curve, poor fit]
COc1cc(NC(=O)CSc2nc(-c3ccco3)cc(C(F)(F)F)n2)cc(OC)c1OC | inactive
CCCOc1ccc(C(=O)Nc2ccc(NC(=O)c3ccccc3)c(Br)c2)cc1 | inconclusive: 25.1 µM [cytotoxic, partial curve, poor fit]
O=C(Nc1c2c(nn1-c1ccc(Cl)cc1)CS(=O)(=O)C2)c1cccc(F)c1 | inconclusive: 39.8 µM [cytotoxic, partial curve, poor fit]
CC(C)CN(CC(C)C)S(=O)(=O)c1ccc(C(=O)Nc2sc3c(c2C(N)=O)CC(C)(C)NC3(C)C)cc1 | inconclusive: 39.8 µM [cytotoxic, single point]

SMILES | Potency
CCOc1ccccc1NC(=O)c1c(NCc2cccs2)sc2c1CCC(C)C2 (configuration not stated) | inconclusive: 25.1 µM [cytotoxic, single point]
O=C(CSc1nc(-c2cccc(F)c2)[nH]c1-c1ccccc1)Nc1ccc2c(c1)OCCO2 | inconclusive: 39.8 µM [cytotoxic, single point]
COc1ccc(CNC(=O)c2cc(-c3ccc(OC)cc3)nc3n[nH]c(-c4cccc([N+](=O)[O-])c4)c23)cc1 | inactive
Cc1c(Cl)cccc1NC(=O)Cn1cc(C(=O)c2cccs2)c2ccccc21 | inconclusive: 5.62 µM [cytotoxic, full curve]
Cc1ccc(-c2nc(CS(=O)CC(=O)N3CCN(c4cccc(Cl)c4)CC3)c(C)o2)cc1 (configuration not stated) | inconclusive: 39.8 µM [cytotoxic, single point]
COc1cccc(C(=O)c2cn(CC(=O)NCc3ccccc3Cl)c3nc(C)ccc3c2=O)c1 | inconclusive: 35.5 µM [cytotoxic, single point]
Cc1ccc2cccc(NC(=O)COc3ccccc3Cl)c2n1 | inconclusive: 8.91 µM [rising, partial curve, poor fit]
COc1cccc(-c2oc3ccc(C)cc3c(=O)c2O)c1 | inactive
CC(=O)c1ccc(NC(=O)CC2Nc3cc(C)c(C)cc3NC2=O)cc1 (configuration not stated) | inactive
CCc1cc(=O)[nH]c(SCc2nc(-c3cccc(Cl)c3)no2)n1 | inactive
CC(C)COc1ccc(C(=O)Nc2nnc(S(=O)(=O)N(C)Cc3ccco3)s2)cc1 | inactive
CC(C)c1ccc(NC(=O)c2cnc3sc(N4CCCC4)nn3c2=O)cc1 | inactive
COc1ccc(OC)c(-c2csc(-c3c(N)c(C(=O)c4ccc(Cl)cc4)n4ccccc34)n2)c1 | inconclusive: 2.24 µM [cytotoxic, partial curve, poor fit]
O=C(Cn1c(=O)n(Cc2ccccc2)c(=O)c2sc3ccccc3c21)Nc1ccc(F)cc1 | inconclusive: 2.24 µM [rising, full curve, poor fit]
CCN1CCN(c2cc(C)c3cc(NC(=O)/C=C/c4cccc(OC)c4OC)ccc3n2)CC1 | inconclusive: 28.2 µM [cytotoxic, single point]
COc1ccc(C2=NC(C)(C)N(CC(=O)Nc3cc(OC)cc(OC)c3)C2=O)cc1 | inactive
CCOc1ccc(NC(=O)Nc2cc3c(cc2N2CCCCC2)n(C)c(=O)n3C)cc1 | inconclusive: 25.1 µM [cytotoxic, partial curve, poor fit]
Cc1cc(F)ccc1NC(=O)c1ccc2nc(Cc3ccccc3)oc2c1 | inconclusive: 39.8 µM [cytotoxic, single point]
Cc1ccc(S(=O)(=O)NCCc2nnc3ccc(SCc4ccc(F)cc4)nn23)cc1 | inconclusive: 25.1 µM [cytotoxic, single point]
CCC(C)NC(=O)c1[nH]c2cc(C)ccc2c1Sc1ccc(Cl)cc1 (configuration not stated) | inactive
